# Patent US20220117938A1, “COMBINATON THERAPY WITH A DON PRODRUG AND AN IMMUNE CHECKPOINT INHIBITOR” (DRACEN PHARMACEUTICALS, INC., priority 2019, published 2022)
# Further values from the same series stand in other lists.
# Test system: MC-38 tumors
# Test: Anti-tumor efficacy of Compound 1 with and without anti-PD-1 in the subcutaneous MC-38 model (Example 4)
# Assay type: in vivo, Mus musculus
# Procedure: Tumor sizes were measured three times a week in two dimensions using a caliper, and the volume expressed in mm^3 using the formula: V=0.5 a×b^2 where a and b are the long and short diameters of the tumor, respectively. The tumor sizes were then used for the calculations of both tumor growth inhibition (TGI) and T/C values.
# TGI is calculated for each group using the formula: […]
# TVTreatment_DayN is the average tumor volume of a treatment group on a given day, TVTreatment_Day0 is the average tumor volume of the treatment group on the first day of treatment, TVVehicle_DayN is the average tumor volume of the vehicle control group on a given day, and TVVehicle_Day0 is the average tumor volume of the vehicle group on the first day of treatment.
# The T/C value (in percent) is an indication of antitumor effectiveness, T/C (%)=RTVTreatment/RTVControl×100% (RTVTreatment: the mean RTV of the treatment group; RTVControl: the mean RTV of the vehicle treated group). RTV (relative tumor volume)=TVDayN/TVDay0. TVDayN and TVDay0 is the tumor volume on day N and Day 0 respectively. T/C (%)≤42% is considered as significant antitumor activity and <10% is considered as highly significant antitumor activity by the National Cancer Institute criteria.
# Animal survival curve: When an individual animal reached to the termination endpoint (TV>2000 mm^3), the mouse was euthanized. The time from treatment initiation to the termination was deemed as its survival time. Survival curve was plotted by Kaplan-Meier method. Median survival time (MST) was calculated for each group. Increase of life span (ILS) was calculated according to the following formula: […]
# ILS (%)>25% is considered as a biologically significant survival benefit.
# The tumor volume between different groups was analyzed by two-way repeated measures ANOVA. Dunnett post hoc test was used for the comparisons with vehicle group. All data analyzed using GraphPad Prism 6.0. P<0.05 is considered to be statistically significant.
# Female C57BL/6 mice were inoculated subcutaneously at right flank with MC-38 cells for tumor development. Six days after tumor inoculation, 64 mice with tumor size ranging from 50-100 mm^3 (average tumor size 71 mm^3) were selected and assigned into 8 groups using stratified randomization with 8 mice per group based upon their tumor volumes. The treatments were started from the day of randomization (defined as D0), Group 1 was treated with Vehicle (Tween 80:Ethanol:Saline—5:5:90 v/v/v), s.c., qd×14, Group 2 was treated with Anti-PD-1 10 mg/kg i.p. q4d×4, Group 3 was treated with Compound 1 3 mpk qd×5, sc followed by 1 mpk, qd×9, sc, Group 4 was treated with Compound 1 3 mpk qd×5, sc followed by 1 mpk, qd×9, sc+anti PD-1 q4d×4, ip, Group 5 was treated with Compound 1 1 mpk qd×5, sc followed by 0.3 mpk, qd×9, sc, Group 6 was treated with Compound 1 1 mpk qd×5, sc followed by 0.3 mpk, qd×9, sc+anti PD-1 q4d×4, ip, Group 7 was treated with Compound 1 0.3 mpk qd×5, sc followed by 0.1 mpk, qd×9, sc and Group 8 was treated with Compound 1 0.3 mpk qd×5, sc followed by 0.1 mpk, qd×9, sc+anti PD-1 q4d×4, ip. The tumor sizes were measured three times per week during the treatment. The entire study was terminated on D56 after start of the treatment. […]
# The MC-38 tumor cells were maintained in vitro as a monolayer culture in DMEM medium supplemented with 10% heat inactivated fetal bovine serum and 100 μg/mL penicillin streptomycin at 37° C. in an atmosphere of 5% CO2 in air. The tumor cells were routinely subcultured twice weekly by trypsin-EDTA treatment. The cells growing to a confluency around 70%-80% were harvested and counted for tumor inoculation. The cultured MC-38 were harvested, re-suspended in base medium at a density of 1×10^7 cells/mL with viability >90%. Each mouse was inoculated subcutaneously at the right flank with 1×10^6 cells in 0.1 ml base medium for tumor development. […]
structure (smiles),measurement,setting,value
"CC(=O)N[C@@H](Cc1c[nH]c2ccccc12)C(=O)N[C@@H](CCC(=O)C=[N+]=[N-])C(=O)OC(C)C [Compound 1, Isopropyl (S)-2-((S)-2-acetamido-3-(1H-indol-3-yl)propanamido)-6-diazo-5-oxohexanoate]",Tumor volume (Mean ± SEM),"Day 0, Cpd. 1 0.3 mpk qdx5 followed by 0.1 mpk qdx9, sc",72 ± 5 mm^3
same,Tumor volume (Mean ± SEM),"Day 0, Cpd. 1 1 mpk qdx5 followed by 0.3 mpk qdx9, sc",71 ± 5 mm^3
same,Tumor volume (Mean ± SEM),"Day 0, Cpd. 1 3 mpk qdx5 followed by 1 mpk qdx9, sc",70 ± 4 mm^3
same,Tumor volume (Mean ± SEM),"Day 2, Cpd. 1 0.3 mpk qdx5 followed by 0.1 mpk qdx9, sc",86 ± 11 mm^3
same,Tumor volume (Mean ± SEM),"Day 2, Cpd. 1 1 mpk qdx5 followed by 0.3 mpk qdx9, sc",67 ± 5 mm^3
same,Tumor volume (Mean ± SEM),"Day 2, Cpd. 1 3 mpk qdx5 followed by 1 mpk qdx9, sc",63 ± 7 mm^3
same,Tumor volume (Mean ± SEM),"Day 5, Cpd. 1 0.3 mpk qdx5 followed by 0.1 mpk qdx9, sc",72 ± 6 mm^3
same,Tumor volume (Mean ± SEM),"Day 5, Cpd. 1 1 mpk qdx5 followed by 0.3 mpk qdx9, sc",38 ± 3 mm^3
same,Tumor volume (Mean ± SEM),"Day 5, Cpd. 1 3 mpk qdx5 followed by 1 mpk qdx9, sc",25 ± 4 mm^3
same,Tumor volume (Mean ± SEM),"Day 7, Cpd. 1 0.3 mpk qdx5 followed by 0.1 mpk qdx9, sc",70 ± 9 mm^3
same,Tumor volume (Mean ± SEM),"Day 7, Cpd. 1 1 mpk qdx5 followed by 0.3 mpk qdx9, sc",27 ± 5 mm^3
same,Tumor volume (Mean ± SEM),"Day 7, Cpd. 1 3 mpk qdx5 followed by 1 mpk qdx9, sc",19 ± 3 mm^3
same,Tumor volume (Mean ± SEM),"Day 9, Cpd. 1 0.3 mpk qdx5 followed by 0.1 mpk qdx9, sc",76 ± 12 mm^3
same,Tumor volume (Mean ± SEM),"Day 9, Cpd. 1 1 mpk qdx5 followed by 0.3 mpk qdx9, sc",25 ± 4 mm^3
same,Tumor volume (Mean ± SEM),"Day 9, Cpd. 1 3 mpk qdx5 followed by 1 mpk qdx9, sc",12 ± 2 mm^3
same,Tumor volume (Mean ± SEM),"Day 12, Cpd. 1 0.3 mpk qdx5 followed by 0.1 mpk qdx9, sc",114 ± 25 mm^3
same,Tumor volume (Mean ± SEM),"Day 12, Cpd. 1 1 mpk qdx5 followed by 0.3 mpk qdx9, sc",27 ± 7 mm^3
same,Tumor volume (Mean ± SEM),"Day 12, Cpd. 1 3 mpk qdx5 followed by 1 mpk qdx9, sc",8 ± 2 mm^3
